Results reported in PubChem BioAssay AID1768 (National Center for Advancing Translational Sciences (NCATS), 2009).
The whole screen tested about 270,000 compounds, of which about 620 (0.23%) were called active. The shares of active, inactive and inconclusive entries below differ from those in the screen. Calls follow the shape of the dose curve; as a rule, active = well fitted inhibition curve with a large enough effect in the polarisation, with a control signal flat (not every such curve was filed as active); inconclusive = small, poorly fitted or top-dose-only effect, or effect the other way, or a change in a side signal; inactive = no such curve, though single readings can be large or run the other way; the % refers to the polarisation. Potencies beside an inconclusive call are fits to weak or partial responses and may not hold up. “Side channel” marks fits to a control or component signal instead of the main read-out.
Potency is read from the fitted curve at half-maximal effect; tags tell the direction and shape of the fitted curve or compound fluorescence and quenching.

What follows are compounds tested against Menin (Homo sapiens) (UniProt O00255) (assay: qHTS Assay for Inhibitors Targeting the Menin-MLL Interaction in MLL Related Leukemias: Competition With Texas Red Labeled MLL-derived Mutant Peptide). Conditions: fluorescence polarization; series mostly up to 61.6 µM.
UniProt O00255, sequence (O00255 whole entry, looked up): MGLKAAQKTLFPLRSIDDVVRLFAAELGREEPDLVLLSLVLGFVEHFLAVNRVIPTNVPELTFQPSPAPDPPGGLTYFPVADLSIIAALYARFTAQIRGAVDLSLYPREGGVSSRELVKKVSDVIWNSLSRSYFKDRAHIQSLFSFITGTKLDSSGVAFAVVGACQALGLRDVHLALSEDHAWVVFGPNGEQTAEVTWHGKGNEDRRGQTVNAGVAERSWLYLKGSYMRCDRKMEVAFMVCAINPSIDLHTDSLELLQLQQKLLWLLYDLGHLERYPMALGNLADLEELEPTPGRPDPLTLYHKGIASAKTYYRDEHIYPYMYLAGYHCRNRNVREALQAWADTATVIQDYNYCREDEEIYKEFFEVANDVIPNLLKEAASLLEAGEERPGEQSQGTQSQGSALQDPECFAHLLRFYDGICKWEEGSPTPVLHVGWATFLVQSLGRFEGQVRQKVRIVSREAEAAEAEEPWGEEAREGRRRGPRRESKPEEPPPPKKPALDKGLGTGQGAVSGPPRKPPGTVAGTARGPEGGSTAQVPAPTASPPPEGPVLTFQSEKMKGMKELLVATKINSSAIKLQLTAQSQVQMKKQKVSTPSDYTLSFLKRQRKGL
With `Cc1ccccc1NS(=O)(=O)c1cc(C(=O)NCc2ccncc2)ccc1Cl` the Potency was inconclusive: 5.62 µM [inhibitor, full curve]. In the case of `O=C(N/N=C\c1ccc(-c2ccccc2[N+](=O)[O-])o1)C1COc2cc3ccccc3cc2O1` (configuration not stated), the Potency is reported as inconclusive: 28.2 µM [quencher, side channel, single point]. In the case of `O=C(NCc1ccccc1)C(c1ccco1)N(C(=O)c1cnccn1)c1ccc(F)cc1` (configuration not stated), the Potency is reported as inconclusive: 39.8 µM [inhibitor, single point]. With `Clc1cccc(CN2CCc3c([nH]c4ccccc34)C2)c1` the Potency was inconclusive: 35.5 µM [fluorescent, side channel, single point]. `CCN(CC)c1cc(C)c2cc(NC(=O)c3cccs3)ccc2n1` was tested, and the Potency was inconclusive: 20 µM [quencher, side channel, partial curve]. In the case of `Nc1ccc(C(=O)N/N=C/c2c[nH]c3ccccc23)cc1`, the Potency is reported as inconclusive: 22.4 µM [quencher, side channel, single point]. `COc1cc(CNC2CCCCCCC2)ccc1OCC(N)=O` was tested, and the Potency was inconclusive: 28.2 µM [inhibitor, single point]. For `Cc1cc(C)cc(NS(=O)(=O)c2ccc(NC(=S)NC(=O)c3ccc(Br)o3)cc2)c1`, the Potency was inconclusive: 25.1 µM [inhibitor, single point]. In the case of `COc1ccccc1NC(=S)NNC(=O)c1nn(C)cc1Cl`, the Potency is reported as inconclusive: 22.4 µM [quencher, side channel, single point]. `COc1ccccc1N1CCN(C(=O)C2CCN(C(=O)c3ccc(C(C)(C)C)cc3)CC2)CC1` was tested, and the Potency was inconclusive: 2.51 µM [fluorescent, side channel, full curve, poor fit]. In the case of `COc1ccc(CNC(=O)CN(c2ccc(C)cc2)S(=O)(=O)c2c(C)noc2C)cc1`, the Potency is reported as inconclusive: 28.2 µM [fluorescent, side channel, single point]. For `CCOc1ccc(NC(=O)CN2CCN(CC(=O)Nc3ccc(F)cc3)CC2)cc1`, the Potency was “inactive”. For `O=S(=O)(c1ccccc1)c1nc(-c2ccccc2)oc1N1CCOCC1`, the Potency was inconclusive: 35.5 µM [fluorescent, side channel, single point]. For `c1ccc(-c2nc(-c3cccs3)[nH]c2-c2ccccc2)cc1`, the Potency was inconclusive: 14.1 µM [quencher, side channel, partial curve]. With `Cc1cccc(NS(=O)(=O)c2ccc3c(c2)CCC(=O)N3)c1` the Potency was “inactive”. With `CN(C)c1ccc(NC(=O)c2ccc3nc[nH]c3c2)cc1` the Potency was inconclusive: 25.1 µM [quencher, side channel, single point]. With `Cc1ccc(OCCCCn2cnc3ccccc32)cc1` the Potency was inconclusive: 8.91 µM [fluorescent, side channel, full curve, poor fit]. For `O=[N+]([O-])c1ccc(Nc2nc(N/N=C/c3cccc(F)c3)nc(N3CCCC3)n2)cc1`, the Potency was inconclusive: 3.55 µM [quencher, side channel, full curve]. For `Cc1ccc(C)n1-c1ccc(N2CCOCC2)nc1`, the Potency was inconclusive: 11.2 µM [inhibitor, partial curve]. With `CCC(Oc1nc2ccccc2nc1-c1ccccc1NC(C)=O)C(=O)c1ccccc1` (configuration not stated) the Potency was inconclusive: 2 µM [inhibitor, partial curve]. `CNc1nc(-c2ccccc2)[n+](-c2ccc(C)cc2)s1` was tested, and the Potency was inconclusive: 15.8 µM [inhibitor, partial curve, poor fit]. With `Cc1csc(NC(=O)c2cc([N+](=O)[O-])cc([N+](=O)[O-])c2)n1` the Potency was inconclusive: 12.6 µM [quencher, side channel, partial curve]. For `CCN1CCCC1CNC(=O)c1ccc(Sc2ccc(F)cc2)c([N+](=O)[O-])c1` (configuration not stated), the Potency was inconclusive: 35.5 µM [inhibitor, single point]. `Cc1ccc(N2C=Nc3ccc(C)c4nc(C)cc2c34)cc1` was tested, and the Potency was “inactive”. In the case of `C=C[C@@]1(C)CC(=O)[C@@]2(O)[C@@]3(C)[C@@H](O)CCC(C)(C)[C@@H]3[C@H](O)[C@H](OC(C)=O)[C@@]2(C)O1`, the Potency is reported as “inactive”. In the case of `COc1ccc(O)c(C2=Nc3ccccc3N=C(c3cccs3)C2)c1`, the Potency is reported as inconclusive: 31.6 µM [quencher, side channel, single point]. With `Cc1cc2cc(CNC(=O)c3cccc([N+](=O)[O-])c3)ccc2n1C` the Potency was inconclusive: 20 µM [fluorescent, side channel, single point]. `COc1ccc(-c2cccc(C(=O)Nc3cccc(C(=O)O)c3)c2)cc1` was tested, and the Potency was inconclusive: 31.6 µM [quencher, side channel, single point]. `CCOc1ccccc1C(=O)NC(C(=O)NCc1ccc(F)cc1)C(C)C` (configuration not stated) was tested, and the Potency was inconclusive: 35.5 µM [fluorescent, side channel, single point]. `O=C(COC(=O)C1(c2ccc(F)cc2)CCCC1)NCc1ccc2c(c1)OCO2` was tested, and the Potency was inconclusive: 3.98 µM [inhibitor, full curve, poor fit]. For `COc1ccccc1NC(=S)N(C(C)C)C(C)c1ccccn1` (configuration not stated), the Potency was “inactive”. In the case of `CCN(CC)C(=O)c1[nH]cnc1C(=O)N[C@@H](CC(C)C)C(=O)OC(C)(C)C`, the Potency is reported as inconclusive: 15.8 µM [fluorescent, side channel, partial curve]. With `Cc1nnsc1C(=O)NNS(=O)(=O)c1ccccc1` the Potency was “inactive”. With `Cc1ccc(NC(=O)CCC(=O)c2ccc(Br)cc2)cc1` the Potency was inconclusive: 25.1 µM [inhibitor, single point]. In the case of `CN(Cc1ccccc1)CC(O)COc1ccc(CNCCc2ccncc2)cc1` (configuration not stated), the Potency is reported as inconclusive: 11.2 µM [inhibitor, partial curve]. `O=C(Nc1cccc(Br)c1)c1ccc(OC2CSC2)cc1` was tested, and the Potency was inconclusive: 14.1 µM [quencher, side channel, partial curve]. In the case of `NS(=O)(=O)c1cccc(NC(=O)COC(=O)CCCc2c[nH]c3ccccc23)c1`, the Potency is reported as inconclusive: 22.4 µM [quencher, side channel, partial curve]. With `Cc1ccc(-c2cc3cccc[n+]3cc2-c2ccc(C)cc2)cc1` the Potency was inconclusive: 31.6 µM [inhibitor, single point]. For `Cc1occc1C(=O)N/N=C/c1c(O)ccc2ccccc12`, the Potency was inconclusive: 3.16 µM [quencher, side channel, partial curve]. With `O=C(Nc1ccc([N+](=O)[O-])cc1)c1cccc(S(=O)(=O)Nc2ccccn2)c1` the Potency was inconclusive: 39.8 µM [fluorescent, single point]. With `CC(C)(C)c1ccc(OCCCNC2CCCC2)cc1` the Potency was inconclusive: 22.4 µM [inhibitor, partial curve, poor fit]. For `COc1ccc2[nH]c(=O)c(CN(C3CCCCC3)C(c3nnnn3Cc3ccco3)C(C)C)cc2c1` (configuration not stated), the Potency was inconclusive: 35.5 µM [quencher, side channel, single point]. `CCCNC(=O)COC(=O)/C(C#N)=C/c1cc(C)n(CCC)c1C` was tested, and the Potency was inconclusive: 22.4 µM [fluorescent, side channel, single point]. With `CC(C)(C)c1nn(-c2ccccc2)c2[nH]c(=O)c(C=O)cc12` the Potency was inconclusive: 15.8 µM [quencher, side channel, single point]. In the case of `O=P(CCNCc1ccco1)(c1ccccc1)c1ccccc1`, the Potency is reported as “inactive”. In the case of `O=C(CNCc1ccccc1)NC1C2CC3CC(C2)CC1C3` (configuration not stated), the Potency is reported as inconclusive: 20 µM [fluorescent, side channel, partial curve]. For `CCOC(=O)c1sc2nc(CSc3ccccc3)nc(NCCN(C)C)c2c1C`, the Potency was inconclusive: 3.98 µM [inhibitor, partial curve]. For `CC1(C)SC(=S)N(/N=C/c2ccccc2)C1N(O)C(=O)Nc1ccc([N+](=O)[O-])cc1` (configuration not stated), the Potency was inconclusive: 2.82 µM [quencher, side channel, full curve]. For `Clc1ccc(Cc2ccc(SCc3ccccc3)nn2)c(Cl)c1`, the Potency was inconclusive: 11.2 µM [inhibitor, partial curve]. For `COc1ccc(-c2oc3cc(OC)c(O)c(OC)c3c(=O)c2OC)cc1O`, the Potency was inconclusive: 17.8 µM [quencher, side channel, partial curve]. `CC(=O)c1sc(N/N=C/c2cccc([N+](=O)[O-])c2)nc1C` was tested, and the Potency was inconclusive: 2.82 µM [quencher, side channel, full curve]. `COc1ccc(OC)c(NC(=O)c2cn(C)c(=O)c3cc(OC)c(OC)cc23)c1` was tested, and the Potency was inconclusive: 39.8 µM [inhibitor, single point]. `O=C(Nc1ccc2ccccc2c1)c1cccc([N+](=O)[O-])c1` was tested, and the Potency was inconclusive: 22.4 µM [quencher, side channel, partial curve]. For `CCCc1ccc(OCc2ccc(C(=O)N3CCSCC3)o2)cc1`, the Potency was inconclusive: 22.4 µM [fluorescent, side channel, partial curve, poor fit]. In the case of `COc1cc(O)c(C(CC(=O)N2CCOCC2)c2cc(OC)c(OC)c(OC)c2)c(OC)c1` (configuration not stated), the Potency is reported as inconclusive: 7.08 µM [inhibitor, single point]. `O=C1/C(=C\c2ccco2)SC(=S)N1Cc1ccccc1` was tested, and the Potency was inconclusive: 35.5 µM [quencher, side channel, single point]. `Cc1ccc(N2CCN(S(=O)(=O)c3nnc(NC(=O)c4ccccc4)s3)CC2)cc1` was tested, and the Potency was inconclusive: 11.2 µM [quencher, side channel, partial curve].
